Results are given in words; binding and its absence hold for the method and conditions named. Binding seen in cells or lysates may run through a third protein. Some binding calls cover weakened binding; strength is not graded here. For some assays here: Sequences can lack the tags named with a protein.
T1: asialoglycoprotein receptor 1 (ASGR1), endogenous in HepG2 cells (human (endogenous in HepG2)) (UniProt P07306)
T1 sequence: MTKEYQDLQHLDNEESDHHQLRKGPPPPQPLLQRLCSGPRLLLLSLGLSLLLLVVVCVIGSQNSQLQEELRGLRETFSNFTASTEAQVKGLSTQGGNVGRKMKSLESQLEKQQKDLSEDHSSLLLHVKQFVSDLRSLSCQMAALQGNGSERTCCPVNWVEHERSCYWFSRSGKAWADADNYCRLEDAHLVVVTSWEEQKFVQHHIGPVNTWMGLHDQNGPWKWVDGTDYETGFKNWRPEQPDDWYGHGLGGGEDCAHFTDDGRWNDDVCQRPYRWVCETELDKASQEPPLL

Amino acid sequences for entries named in this document (tags omitted). Residues count along the entry.
UniProt P11021, residues 19-654: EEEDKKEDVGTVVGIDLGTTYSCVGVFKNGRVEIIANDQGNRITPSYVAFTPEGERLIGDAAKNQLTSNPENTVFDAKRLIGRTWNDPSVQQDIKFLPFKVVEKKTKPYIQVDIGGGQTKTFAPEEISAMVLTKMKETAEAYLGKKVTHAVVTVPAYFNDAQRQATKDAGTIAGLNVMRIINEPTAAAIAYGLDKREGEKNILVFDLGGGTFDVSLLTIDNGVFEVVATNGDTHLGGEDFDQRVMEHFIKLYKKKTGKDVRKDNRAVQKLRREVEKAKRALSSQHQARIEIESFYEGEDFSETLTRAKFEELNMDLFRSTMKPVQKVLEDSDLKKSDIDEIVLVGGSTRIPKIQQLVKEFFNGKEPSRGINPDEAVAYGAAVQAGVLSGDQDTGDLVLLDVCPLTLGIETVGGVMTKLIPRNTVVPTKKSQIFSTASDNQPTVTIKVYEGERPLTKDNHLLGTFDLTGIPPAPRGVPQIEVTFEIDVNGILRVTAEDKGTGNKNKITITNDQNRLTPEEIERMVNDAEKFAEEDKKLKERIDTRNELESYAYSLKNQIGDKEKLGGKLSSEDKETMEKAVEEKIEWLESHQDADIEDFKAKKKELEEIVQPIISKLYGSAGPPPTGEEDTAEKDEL

T2: HA-tagged ASGR1 (WT) (UniProt P07306)
T2 sequence: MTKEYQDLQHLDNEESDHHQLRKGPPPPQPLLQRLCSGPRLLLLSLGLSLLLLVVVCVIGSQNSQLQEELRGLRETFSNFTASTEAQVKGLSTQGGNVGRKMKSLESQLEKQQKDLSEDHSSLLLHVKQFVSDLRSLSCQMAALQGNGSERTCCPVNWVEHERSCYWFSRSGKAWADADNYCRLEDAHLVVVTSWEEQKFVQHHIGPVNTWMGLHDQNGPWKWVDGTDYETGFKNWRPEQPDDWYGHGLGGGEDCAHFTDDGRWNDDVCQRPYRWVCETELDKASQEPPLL

T3: HA-tagged ASGR1 fragment, 161-291 aa domain (UniProt P07306)
T3 sequence: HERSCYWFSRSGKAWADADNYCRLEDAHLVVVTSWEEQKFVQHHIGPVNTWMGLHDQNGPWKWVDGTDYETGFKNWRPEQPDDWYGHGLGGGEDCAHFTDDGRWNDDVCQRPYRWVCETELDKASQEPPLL

T4: HA-tagged ASGR1 triple Ala-mutant (3A) (UniProt P07306)
T4 sequence: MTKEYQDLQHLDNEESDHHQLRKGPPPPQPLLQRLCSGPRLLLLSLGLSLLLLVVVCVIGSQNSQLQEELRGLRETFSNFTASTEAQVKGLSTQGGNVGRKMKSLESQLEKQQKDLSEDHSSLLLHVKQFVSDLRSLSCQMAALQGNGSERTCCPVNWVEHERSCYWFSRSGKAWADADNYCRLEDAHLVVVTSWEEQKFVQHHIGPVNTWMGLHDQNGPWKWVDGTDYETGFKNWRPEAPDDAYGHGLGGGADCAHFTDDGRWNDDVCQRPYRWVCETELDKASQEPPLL


Columns and labels:
[1] = biological target: T1, asialoglycoprotein receptor 1 (ASGR1), endogenous in HepG2 cells (human (endogenous in HepG2)); test: co-IP; endogenous Co-IP in HepG2 cells, western blot
[2] = biological target: immunoglobulin heavy chain binding protein (BIP), overexpressed (UniProt P11021); test: co-IP; exogenous Co-IP in hepatocytes overexpressing GP73 and BIP, with ASGR1 knockdown (interaction increased) or ASGR1 overexpression (binding reduced)
HA-tagged ASGR1 (WT) = biological target: T2, HA-tagged ASGR1 (WT); test: co-IP; exogenous Co-IP in HepG2 cells cotransfected for 24 h with HA-tagged ASGR1 and Flag-tagged GP73 constructs; lysates in NP40 buffer (1% NP40, 150 mM NaCl, 40 mM Tris pH 7.5); anti-HA or anti-Flag magnetic beads, 4 °C overnight; western blot
[3] = biological target: T3, HA-tagged ASGR1 fragment, 161-291 aa domain; test: as above
[4] = biological target: T4, HA-tagged ASGR1 triple Ala-mutant (3A); test: as above

binding [1]	binding (HA-tagged ASGR1 (WT))	Binder	other results
binds		Golgi Protein 73 (GP73), endogenous in HepG2 cells (protein, UniProt Q8NBJ4 1-401) MMGLGNGRRSMKSPPLVLAALVACIIVLGFNYWIASSRSVDLQTRIMELEGRVRRAAAERGAVELKKNEFQGELEKQREQLDKIQSSHNFQLESVNKLYQDEKAVLVNNITTGERLIRVLQDQLKTLQRNYGRLQQDVLQFQKNQTNLERKFSYDLSQCINQMKEVKEQCEERIEEVTKKGNEAVASRDLSENNDQRQQLQALSEPQPRLQAAGLPHTEVPQGKGNVLGNSKSQTPAPSSEVVLDSKRQVEKEETNEIQVVNEEPQRDRLPQEPGREQVVEDRPVGGRGFGGAGELGQTPQVQAALSVSQENPEMEGPERDQLVIPDGQEEEQEAAGEGRNQQKLRGEDDYNMDENEAESETDKQAALAGNDRNIDVFNVEDQKRDTINLLDQREKRNHTL	
	binds	Flag-tagged GP73 (WT) (protein, UniProt Q8NBJ4 1-401) MMGLGNGRRSMKSPPLVLAALVACIIVLGFNYWIASSRSVDLQTRIMELEGRVRRAAAERGAVELKKNEFQGELEKQREQLDKIQSSHNFQLESVNKLYQDEKAVLVNNITTGERLIRVLQDQLKTLQRNYGRLQQDVLQFQKNQTNLERKFSYDLSQCINQMKEVKEQCEERIEEVTKKGNEAVASRDLSENNDQRQQLQALSEPQPRLQAAGLPHTEVPQGKGNVLGNSKSQTPAPSSEVVLDSKRQVEKEETNEIQVVNEEPQRDRLPQEPGREQVVEDRPVGGRGFGGAGELGQTPQVQAALSVSQENPEMEGPERDQLVIPDGQEEEQEAAGEGRNQQKLRGEDDYNMDENEAESETDKQAALAGNDRNIDVFNVEDQKRDTINLLDQREKRNHTL	binding [2]: binds; binding [3]: binds; binding [4]: no binding
	no binding	Flag-tagged GP73-N144A (protein, UniProt Q8NBJ4 1-401) MMGLGNGRRSMKSPPLVLAALVACIIVLGFNYWIASSRSVDLQTRIMELEGRVRRAAAERGAVELKKNEFQGELEKQREQLDKIQSSHNFQLESVNKLYQDEKAVLVNNITTGERLIRVLQDQLKTLQRNYGRLQQDVLQFQKAQTNLERKFSYDLSQCINQMKEVKEQCEERIEEVTKKGNEAVASRDLSENNDQRQQLQALSEPQPRLQAAGLPHTEVPQGKGNVLGNSKSQTPAPSSEVVLDSKRQVEKEETNEIQVVNEEPQRDRLPQEPGREQVVEDRPVGGRGFGGAGELGQTPQVQAALSVSQENPEMEGPERDQLVIPDGQEEEQEAAGEGRNQQKLRGEDDYNMDENEAESETDKQAALAGNDRNIDVFNVEDQKRDTINLLDQREKRNHTL	
binds		PLVAP, endogenous in HepG2 cells (protein, UniProt Q9BX97 1-442) MGLAMEHGGSYARAGGSSRGCWYYLRYFFLFVSLIQFLIILGLVLFMVYGNVHVSTESNLQATERRAEGLYSQLLGLTASQSNLTKELNFTTRAKDAIMQMWLNARRDLDRINASFRQCQGDRVIYTNNQRYMAAIILSEKQCRDQFKDMNKSCDALLFMLNQKVKTLEVEIAKEKTICTKDKESVLLNKRVAEEQLVECVKTRELQHQERQLAKEQLQKVQALCLPLDKDKFEMDLRNLWRDSIIPRSLDNLGYNLYHPLGSELASIRRACDHMPSLMSSKVEELARSLRADIERVARENSDLQRQKLEAQQGLRASQEAKQKVEKEAQAREAKLQAECSRQTQLALEEKAVLRKERDNLAKELEEKKREAEQLRMELAIRNSALDTCIKTKSQPMMPVSRPMGPVPNPQPIDPASLEEFKRKILESQRPPAGIPVAPSSG	
	binds	Flag-tagged GP73 fragment, 56-205 aa domain (domain or fragment, UniProt Q8NBJ4 56-205) AAAERGAVELKKNEFQGELEKQREQLDKIQSSHNFQLESVNKLYQDEKAVLVNNITTGERLIRVLQDQLKTLQRNYGRLQQDVLQFQKNQTNLERKFSYDLSQCINQMKEVKEQCEERIEEVTKKGNEAVASRDLSENNDQRQQLQALSE	

From paper PMC10924105
